The list shows a part of the results. The energies were worked out here from pooled read counts, against the library average; single values are noisy.
What follows are sequences tested against T1, Pho4 (S. cerevisiae) (UniProt P07270) (assay: relative binding free energy (BET-seq); higher = weaker binding). Conditions: reference: library average.
T1 sequence: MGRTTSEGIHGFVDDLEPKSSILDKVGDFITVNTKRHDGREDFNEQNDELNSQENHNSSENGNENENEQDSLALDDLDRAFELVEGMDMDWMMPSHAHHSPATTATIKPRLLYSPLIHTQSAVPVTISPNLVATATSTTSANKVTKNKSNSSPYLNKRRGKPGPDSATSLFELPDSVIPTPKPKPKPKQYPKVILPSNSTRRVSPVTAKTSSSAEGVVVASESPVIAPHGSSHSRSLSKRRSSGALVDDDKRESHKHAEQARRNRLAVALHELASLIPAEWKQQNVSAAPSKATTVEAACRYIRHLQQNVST

Relative binding free energy, 0.3 kcal/mol:
GGGTACACGTGAGTGT
TTTTTCACGTGTTTGG
ATTCTCACGTGGGAAG

Relative binding free energy, 0.22 kcal/mol:
GAAGTCACGTGACGGG
TGTTTCACGTGGTCGA
TCGCTCACGTGGTGGA
ATATTCACGTGTTTAG

Relative binding free energy, -0.1 kcal/mol:
GTAGGCACGTGGCGAA
GTAACCACGTGGGGTT
AGGAGCACGTGGTGAG
TGTTCCACGTGGTTCT

Relative binding free energy, 0.34 kcal/mol:
TTTTACACGTGAGAAG

Relative binding free energy, 0.33 kcal/mol:
TTATGCACGTGAGGAG
AGAGCCACGTGAGGAT
TGGTTCACGTGTCGGA

Relative binding free energy, 0.15 kcal/mol:
TGGAACACGTGGAGGG
GAAGACACGTGTGGAG
AGTTTCACGTGGGGCA
GACGGCACGTGATTTG
GTTAACACGTGTGGAG

Relative binding free energy, 0.39 kcal/mol:
TTAAGCACGTGAAGTT

Relative binding free energy, 0.07 kcal/mol:
AGGTTCACGTGCTGCG
TATTGCACGTGAGTAA
GTTGTCACGTGTCATA

Relative binding free energy, -0.17 kcal/mol:
CAGGGCACGTGCATGT
AGGTCCACGTGGTTGA
TGGTGCACGTGTTCTA
TGGGCCACGTGGTACG
AATGGCACGTGCGTTA

Relative binding free energy, -0.11 kcal/mol:
GTGGGCACGTGTGACG
AGTGGCACGTGTCGGT

Relative binding free energy, 0 kcal/mol:
GAAGGCACGTGTTGCG
TTTGTCACGTGGGGAC
TAAGTCACGTGGTTCG
GAGGACACGTGGGCTG

Relative binding free energy, -0.19 kcal/mol:
ATATGCACGTGGTGTC
TTCAGCACGTGGTTAT

Relative binding free energy, -0.05 kcal/mol:
GGGTGCACGTGGTTTA
TGAAGCACGTGCTTGG
AGGCGCACGTGTGCAG
CAGGGCACGTGGTAAA

Relative binding free energy, 0.02 kcal/mol:
TTTGGCACGTGTTAGC
TGTGACACGTGGCAAG
TGGTGCACGTGTTTTC
GTTGGCACGTGCTTCA
GTTGGCACGTGTGTTC
TTGTGCACGTGTGACG
ATGGTCACGTGCATGG
GGAAGCACGTGGAGAG
GGTTGCACGTGCCAGT

Relative binding free energy, 0.1 kcal/mol:
AGTGGCACGTGAGGGC
TAGTACACGTGTTGAT
TTGGCCACGTGACGTT
ATGTACACGTGTAATG
ATTTGCACGTGTAGAG

Relative binding free energy, 0.28 kcal/mol:
AATATCACGTGTGACG
TGGTTCACGTGCATCT
TGTTTCACGTGCGTAG
CTGTTCACGTGTAAAG

Relative binding free energy, 0.04 kcal/mol:
GCATGCACGTGGATTT
TTGCCCACGTGGTATT

Relative binding free energy, -0.04 kcal/mol:
AGTGTCACGTGTCATG
TGCGTCACGTGGCTTA
TTGTCCACGTGGGTAT
ATACGCACGTGTTTAT
ATATGCACGTGTTATA
TGCGTCACGTGGTAGT
CAGGGCACGTGGAGTG

Relative binding free energy, 0.31 kcal/mol:
ACGTTCACGTGCGGGT
GTAATCACGTGAGGTG
TTCTTCACGTGTGTAC
GTGCTCACGTGAGTTA
ACATTCACGTGTGAGT

Relative binding free energy, 0.16 kcal/mol:
TCGTTCACGTGTTTAG
GCATTCACGTGGGGAG
GTGGGCACGTGATGAG

Relative binding free energy, 0.23 kcal/mol:
CTTATCACGTGTATGT
TGGATCACGTGTAAGC
AAACTCACGTGTTGTT
GATCGCACGTGATGTG

Relative binding free energy, -0.27 kcal/mol:
ATGAGCACGTGCTAGG

Relative binding free energy, 0.2 kcal/mol:
TCATGCACGTGATTGA
GGGCTCACGTGCTGTG
GAAAGCACGTGATGTG
ATTGTCACGTGACAGT
GGAGGCACGTGAGTTT

Relative binding free energy, 0.14 kcal/mol:
TTTGACACGTGAGGCA
TTCCTCACGTGGAGGG
TTGTACACGTGTCGTT

Relative binding free energy, 0.26 kcal/mol:
AGATTCACGTGTGTGG
TGGTTCACGTGAAGCT
TTATTCACGTGTCAAG

Relative binding free energy, 0.05 kcal/mol:
TGGGCCACGTGTAGGA
GTGATCACGTGCGTGG
GGCGACACGTGGGGCT
TGGGCCACGTGAGGGC
GGGGGCACGTGACAGA

Relative binding free energy, -0.16 kcal/mol:
TATGTCACGTGGCTTA
TGGTACACGTGTGTCT
TTTAGCACGTGGTGGG
CAGTGCACGTGGTAGG
TGAGGCACGTGCTTTT
GGGCGCACGTGCGTGG

Relative binding free energy, 0.36 kcal/mol:
TAATTCACGTGCGGTC
TGGTTCACGTGCATGT

Relative binding free energy, -0.09 kcal/mol:
TTAGCCACGTGTATGG
CGGTACACGTGGTCGT

Relative binding free energy, -0.2 kcal/mol:
TATTCCACGTGGGGTG

Relative binding free energy, 0.19 kcal/mol:
TACCTCACGTGTTGTG
TGTCACACGTGCGGAG
ATATGCACGTGAGTTG

Relative binding free energy, 0.24 kcal/mol:
TTTATCACGTGTAGTG
AAGTTCACGTGATAGG
TTGATCACGTGTGTTT
GAGTACACGTGAGGTG

Relative binding free energy, -0.08 kcal/mol:
TGAAGCACGTGTTCTG
AGAGGCACGTGAGCGT
AAGGGCACGTGGAGTG
TTCGTCACGTGGGGTG
TAGAGCACGTGGGTTT

Relative binding free energy, 0.03 kcal/mol:
ACGGACACGTGTGTTT
TAGCTCACGTGCGTGT
TCTGACACGTGTGTGG
CATTACACGTGGTGAT
CTGGTCACGTGCTTTG
TTATGCACGTGTACGA

Relative binding free energy, 0.29 kcal/mol:
TCTAACACGTGTGGTC
AAATTCACGTGGTCTG
ATCGTCACGTGGAATA
GTAATCACGTGTGGCA
GTATCCACGTGATTTT

Relative binding free energy, 0.32 kcal/mol:
GGAGTCACGTGAATGA
GGATTCACGTGATGGG
GGGGTCACGTGTATTC

Relative binding free energy, 0.13 kcal/mol:
AAGTACACGTGCGGTT
GGGGGCACGTGAGCAG
GTGCTCACGTGGATAG
GGCATCACGTGGTTGA
CGGCTCACGTGTGGGA
TTTATCACGTGCGCAG
CATGGCACGTGAGTGT
AATTTCACGTGCTGGT

Relative binding free energy, 0.09 kcal/mol:
GAGAGCACGTGTTTGC
CGGTACACGTGTGTAG
GATAACACGTGTGTAG
GTATACACGTGTTGGC
GGCATCACGTGGGAGT
TTTAACACGTGTACGG
AAGTTCACGTGGGGTA

Relative binding free energy, -0.02 kcal/mol:
AGGGTCACGTGGACTG
GGGGGCACGTGTACAA
ATGTCCACGTGTAGTG
CGTGCCACGTGTGTGA
AGAAGCACGTGTGGCG

Relative binding free energy, 0.25 kcal/mol:
AGCTTCACGTGGTTAG
AAGGTCACGTGTGATT
TGTCACACGTGAGTTG
GCTCTCACGTGGGGTT

Relative binding free energy, 0.63 kcal/mol:
GGGTTCACGTGAAATG

Relative binding free energy, 0.06 kcal/mol:
ATTCGCACGTGATTGT
CTGGTCACGTGTATGG
TGTCACACGTGTTGAG
ATAGTCACGTGATGCG

Relative binding free energy, -0.24 kcal/mol:
GAAGGCACGTGGGGCA

Relative binding free energy, 0.37 kcal/mol:
GTGTTCACGTGTAGTC

Relative binding free energy, -0.12 kcal/mol:
TTAGGCACGTGATAGC
GCTTGCACGTGCGTGT
ATAGCCACGTGTATGG

Relative binding free energy, -0.01 kcal/mol:
GTGTGCACGTGGTAGC
AGCGGCACGTGGATGG
CCGATCACGTGGGGGG
CGGGGCACGTGGAAGT
GGGTGCACGTGTTATG
TTGGACACGTGCCGGT

Relative binding free energy, -0.26 kcal/mol:
TTGCGCACGTGGCGTG
GGGGGCACGTGCTATT

Relative binding free energy, 0.27 kcal/mol:
GGGTTCACGTGTACAG
ACGATCACGTGAGGTG
GTTTTCACGTGAGCGT
GGGTGCACGTGAGTTC

Relative binding free energy, 0.08 kcal/mol:
ATTTCCACGTGTGTGG
TGCTTCACGTGCGTGG
TAAGGCACGTGAGGCG

Relative binding free energy, -0.03 kcal/mol:
GGTAACACGTGGGATG
TAAGTCACGTGGGCGC

Relative binding free energy, 0.17 kcal/mol:
TTTTCCACGTGTCAGG
ATGCTCACGTGGTGGC
GTATCCACGTGATGTT
CTTTTCACGTGGTTTA
GTATACACGTGTGATT
GGTCACACGTGGTTGG

Relative binding free energy, -0.22 kcal/mol:
CTTGGCACGTGGCAGT

Relative binding free energy, 0.21 kcal/mol:
ATCTTCACGTGTGGTT
GTATTCACGTGGGGCG
ATTCTCACGTGTGTGA

Relative binding free energy, -0.13 kcal/mol:
TGTGACACGTGGCTAT
CGGGGCACGTGTAGTG

Relative binding free energy, 0.01 kcal/mol:
TTTGTCACGTGCTGCG
AGATCCACGTGGTGGG

Relative binding free energy, 0.12 kcal/mol:
AGGTGCACGTGAGCGA
TTTTACACGTGGTTAA
CGCGTCACGTGTTATG
TATCGCACGTGTTGGC
AGTGTCACGTGTCGTC

Relative binding free energy, 0.11 kcal/mol:
GTGTTCACGTGGCATT

Relative binding free energy, -0.21 kcal/mol:
AGGAGCACGTGCGTAG

Relative binding free energy, -0.14 kcal/mol:
GTGGGCACGTGGTCCG
ATAAGCACGTGGGTAG
GGGTACACGTGCGCGG
AGCTGCACGTGGGTGC
TGTTCCACGTGGTCGT

Relative binding free energy, 0.41 kcal/mol:
TGGCTCACGTGATTAT

Relative binding free energy, 0.18 kcal/mol:
TGAATCACGTGTGCGG
ATGGACACGTGATCTT
TTGAACACGTGAGTAG
CTAGTCACGTGATGGG
CGTGTCACGTGGAATG
TTTTGCACGTGGAGCC

Relative binding free energy, -0.28 kcal/mol:
TAAGGCACGTGGGCCG

Relative binding free energy, -0.07 kcal/mol:
ATAGTCACGTGGGACG

Relative binding free energy, -0.18 kcal/mol:
CGGAGCACGTGTTATG
AAGGCCACGTGCTGGG
AGGGGCACGTGCTTTT

Relative binding free energy, -0.06 kcal/mol:
TATTGCACGTGGAGAA
CGGTCCACGTGGATGG
TGAAGCACGTGTCGTT
TTTAACACGTGTTTTG
TTGGTCACGTGGCTCT

Relative binding free energy, 0.4 kcal/mol:
GGATTCACGTGTTGTC
GCTATCACGTGAAGGG
